Assay results taken from article PMC7939435.
Results are given in words; binding and its absence hold for the method and conditions named. Binding seen in cells or lysates may run through a third protein. Some binding calls cover weakened binding; strength is not graded here.

Amino acid sequences for entries named in this document (tags omitted).
UniProt Q99816: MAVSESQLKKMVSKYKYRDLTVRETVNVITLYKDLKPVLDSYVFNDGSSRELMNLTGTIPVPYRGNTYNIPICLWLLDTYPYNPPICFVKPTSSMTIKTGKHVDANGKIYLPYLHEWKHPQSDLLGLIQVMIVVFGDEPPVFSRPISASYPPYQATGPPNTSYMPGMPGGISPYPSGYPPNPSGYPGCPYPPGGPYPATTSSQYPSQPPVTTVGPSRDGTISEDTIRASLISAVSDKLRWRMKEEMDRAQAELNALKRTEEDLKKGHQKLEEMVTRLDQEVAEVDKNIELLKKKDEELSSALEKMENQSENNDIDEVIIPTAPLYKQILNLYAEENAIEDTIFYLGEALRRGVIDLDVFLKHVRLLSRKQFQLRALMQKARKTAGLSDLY
UniProt Q8WUM4: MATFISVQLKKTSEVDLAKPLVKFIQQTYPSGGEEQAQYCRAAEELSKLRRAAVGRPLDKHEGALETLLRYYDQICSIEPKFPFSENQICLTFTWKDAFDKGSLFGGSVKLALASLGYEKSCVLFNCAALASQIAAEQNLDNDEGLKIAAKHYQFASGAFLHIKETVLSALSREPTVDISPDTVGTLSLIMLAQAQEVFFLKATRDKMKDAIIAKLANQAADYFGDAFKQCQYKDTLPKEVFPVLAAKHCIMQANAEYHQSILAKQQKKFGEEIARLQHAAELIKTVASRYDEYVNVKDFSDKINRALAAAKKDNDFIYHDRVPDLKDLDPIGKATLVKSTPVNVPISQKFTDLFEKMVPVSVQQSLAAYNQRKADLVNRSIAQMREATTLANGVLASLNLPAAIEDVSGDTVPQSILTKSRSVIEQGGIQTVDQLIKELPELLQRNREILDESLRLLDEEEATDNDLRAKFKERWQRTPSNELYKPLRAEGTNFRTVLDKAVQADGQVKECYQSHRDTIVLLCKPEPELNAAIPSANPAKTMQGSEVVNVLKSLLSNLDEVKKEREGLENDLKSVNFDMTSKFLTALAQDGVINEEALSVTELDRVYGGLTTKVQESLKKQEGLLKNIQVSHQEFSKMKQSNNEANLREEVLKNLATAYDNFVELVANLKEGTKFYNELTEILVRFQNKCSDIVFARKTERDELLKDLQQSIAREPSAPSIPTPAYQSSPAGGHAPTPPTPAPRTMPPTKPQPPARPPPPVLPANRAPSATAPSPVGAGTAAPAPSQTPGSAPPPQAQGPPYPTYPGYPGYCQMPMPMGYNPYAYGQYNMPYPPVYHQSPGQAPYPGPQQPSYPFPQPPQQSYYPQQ

What was measured:
GST-p6 (HIV-1) [1] = target: GST-p6 (HIV-1) (UniProt P04591); assay: pull-down; GST-tagged Gag fragment on GSH-Sepharose incubated overnight with extract of HEK293 cells expressing epitope-tagged ALIX or TSG101, 400 mM NaCl, 1 mg/ml BSA; only the target purified
GST-MA (HIV-1) = GST-MA (HIV-1) (UniProt P04591); assay: pull-down; GST-tagged Gag fragment on GSH-Sepharose incubated overnight with extract of HEK293 cells expressing epitope-tagged ALIX or TSG101, 150 mM NaCl, 1 mg/ml BSA; only the target purified
GST-p6 (HIV-1) [2] = target: GST-p6 (HIV-1) (UniProt P04591); assay: as above
[3] = target: Gag(Δp6)-GFP (expressed in HEK293 cells) (HIV-1) (UniProt P04591); assay: co-IP; GFP-tagged Gag version immunoprecipitated from HEK293 lysate with polyclonal anti-GFP and Protein A-Sepharose, 50 mM Tris pH 7.5, 150 mM NaCl, 1% Triton, 10% glycerol, 4 °C overnight; ALIX or TSG101 detected by its epitope tag
[4] = target: Gag(Δp6)-GFP (expressed in HEK293 cells) (HIV-1) (UniProt P04591); assay: co-IP; as the HEK293 co-IP but with 400 mM NaCl (Fig. S8 C, D)
[5] = target: MA-GFP (expressed in HEK293 cells) (HIV-1) (UniProt P04591); assay: co-IP; MA-GFP immunoprecipitated from HEK293 lysate with anti-GFP; NaCl as indicated in Figure 4E

Measured: binding

TSG101 (epitope-tagged) (from UniProt Q99816 1-390)
binds: GST-p6 (HIV-1) [1] | GST-MA (HIV-1) | GST-p6 (HIV-1) [2]

ALIX (epitope-tagged) (from UniProt Q8WUM4 1-868)
binds: all assays above
